Measured values taken from paper PMC4336329 (PLoS ONE, 2015).
The campaign covered roughly 310,000 compounds. About 14,000 (4.5%) showed an effect of 50% or more. Effects have a minus sign here. This is one part of the list.

Each molecule was assayed against human ether-à-go-go-related gene (hERG) potassium channel (human, UniProt Q12809) (assay: primary screen, population patch clamp on CHO cells stably expressing hERG).
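Further: peak tail current of the secondary pulse compared with the same well before compound.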

human ether-à-go-go-related gene (hERG) potassium channel, sequence (Q12809 whole entry, looked up): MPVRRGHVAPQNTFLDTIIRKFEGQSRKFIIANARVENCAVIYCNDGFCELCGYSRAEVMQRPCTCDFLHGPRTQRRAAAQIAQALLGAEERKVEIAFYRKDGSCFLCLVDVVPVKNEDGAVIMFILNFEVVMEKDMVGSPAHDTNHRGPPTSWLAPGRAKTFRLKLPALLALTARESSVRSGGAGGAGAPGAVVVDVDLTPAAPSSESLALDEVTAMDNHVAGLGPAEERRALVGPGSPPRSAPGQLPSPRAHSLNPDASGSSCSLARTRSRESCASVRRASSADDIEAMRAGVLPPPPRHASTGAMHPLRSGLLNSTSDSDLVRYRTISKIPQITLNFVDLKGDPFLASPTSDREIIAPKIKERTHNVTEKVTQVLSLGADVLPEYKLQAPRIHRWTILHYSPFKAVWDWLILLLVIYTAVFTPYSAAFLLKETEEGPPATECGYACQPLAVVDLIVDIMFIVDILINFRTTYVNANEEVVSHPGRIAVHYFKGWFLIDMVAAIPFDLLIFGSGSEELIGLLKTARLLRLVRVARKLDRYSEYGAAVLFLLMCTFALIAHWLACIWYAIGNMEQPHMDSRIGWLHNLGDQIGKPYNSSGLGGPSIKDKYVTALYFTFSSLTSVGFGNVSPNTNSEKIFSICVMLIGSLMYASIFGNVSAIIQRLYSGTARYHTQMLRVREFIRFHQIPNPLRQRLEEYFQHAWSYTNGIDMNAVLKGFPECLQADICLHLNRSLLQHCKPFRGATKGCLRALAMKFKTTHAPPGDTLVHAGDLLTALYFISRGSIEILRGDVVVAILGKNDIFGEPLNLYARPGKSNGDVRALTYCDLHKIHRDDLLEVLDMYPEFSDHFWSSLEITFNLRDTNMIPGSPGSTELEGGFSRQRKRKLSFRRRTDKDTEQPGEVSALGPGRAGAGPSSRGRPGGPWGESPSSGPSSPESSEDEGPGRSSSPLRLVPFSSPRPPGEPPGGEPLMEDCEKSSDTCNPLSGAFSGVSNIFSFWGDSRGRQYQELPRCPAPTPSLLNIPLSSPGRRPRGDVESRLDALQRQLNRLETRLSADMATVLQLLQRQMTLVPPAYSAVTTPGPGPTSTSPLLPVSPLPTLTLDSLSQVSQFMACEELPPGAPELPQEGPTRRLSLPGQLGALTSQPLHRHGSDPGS

Point of comparison: `Cc1cccc(NC(=O)CSCc2cc(=O)n3c(C)csc3n2)c1C`, “hERG current change (%, negative = inhibition) at 10uM” value -7.86%. Against it:
- Cc1oc(-c2cccc(Cl)c2)nc1CN(C)C1CCOC1 (stereo not shown) — higher, 0.385%
- O=C(NCc1cc(C(F)(F)F)cc(C(F)(F)F)c1)C1CC(c2ccccc2C(F)(F)F)=NO1 (stereo not shown) — higher, -5.26%
- O=C(Nc1nnc(C2CC2)s1)C1CCCO1 (stereo not shown) — higher, 10%
- O=S(=O)(NCc1ccco1)c1ccc(S(=O)(=O)N2CCCCC2)cc1 — lower, -16.4%
- Cc1ccccc1-c1nc2ccc(Cl)cc2c(=O)n1O — higher, 13%
- CC(=O)c1cccc(NC(=O)c2ccc(NS(=O)(=O)c3c(C)noc3C)cc2)c1 — higher, -5.58%
- Cc1cc(OCC(O)CN2CCCC2)cc(C)c1Cl.Cl (stereo not shown) — lower, -43%
- CCCc1nn(C)c(C(=O)Nc2ccc3ccccc3c2)c1Cl — higher, 8.62%
- CC[n+]1ccc(C)c2cc(P(=O)(c3ccccc3)c3ccccc3)ccc21.[I-] — higher, 12.3%
- COc1nc(OC)nc(N2CCC(C(=O)NCC3CCCCC3)CC2)n1 — lower, -25.7%
- CCCCNC(=S)N1CCN(c2nc3ccccc3s2)CC1 — higher, 18%
- CCn1nc(C(=O)Nc2ccc3nc(C)sc3c2)c2ccccc2c1=O — lower, -10.5%
- COc1ccc(CCNC(=O)CNC(=O)c2ccc3c(c2)OCO3)cc1OC — higher, 16.8%
- C[C@H]1CN=C(Nc2ccccc2)N1CCc1ccc(F)cc1 — lower, -46.3%
- O=[N+]([O-])c1ccc(NCCCN2CCOCC2)c(Cl)c1 — lower, -31.8%
- CNC(=O)COC(=O)c1ccc(OCC(=O)Nc2ccccc2OC)c(OC)c1 — higher, 6.61%
- CC(=O)N1CCN(c2ncnc3sc(-c4ccccc4)cc23)CC1 — lower, -44.4%
- Cc1ccc(C(=O)NCCN2C3=NC[C@H](Cc4ccc(O)cc4)N3C[C@H]2Cc2ccc(O)cc2)cc1Br — lower, -51.7%
- O=c1oc2c3c4c(cc2s1)CCCN4CCC3 — higher, 5.4%
- O=C(CCc1nnc(C2(c3ccc(Cl)cc3)CCC2)o1)N1CCCC(O)C1 (stereo not shown) — higher, 4.36%
- O=C(O)CSCC(=O)Nc1ccc(C(F)(F)F)cc1 — higher, 14.9%
- Cl.OC(CNCc1ccncc1)c1ccccc1 (stereo not shown) — higher, 6.97%
- CC(C)Nc1nc(SCC(=O)Nc2ccccc2)nc(N2CCOCC2)n1 — lower, -12.7%
- COc1ccc(Cn2c(=O)n(Cc3ccco3)c(=N)c3c4c(sc32)COC(C)(C)C4)cc1 — lower, -15.9%
- COc1ccc(C(NC(=O)c2ccco2)c2ccc(OC)c(OC)c2)cc1OC — higher, -3.65%
- CC(=O)Nc1cccc2c1C(=O)N(c1ccc(OC(C)=O)cc1)C2=O — higher, 12.5%
- O=C(Cn1nnc2ccccc2c1=O)N[C@@H](Cc1c[nH]c2ccccc12)C(=O)O — higher, 17.9%
- COc1ccc(C(=O)Oc2ccc3ccc(=O)oc3c2)cc1OC — higher, 11.2%
- CNC(=O)c1c2c(nc3ccc(Br)cc13)CCCC2 — higher, 1.9%
- CN1C=CC=C/C1=C1\SC(=S)N(c2ccccc2)C1=O — higher, -2.01%
- Cc1ccc(-c2nc(-c3ccccn3)no2)cc1 — lower, -14%
- Cc1cccc(NC(=O)c2ccc(S(=O)(=O)N3CCCCC3)cc2)c1 — lower, -21.7%
- CC1CCN(C(=O)c2ccc(-n3cnnn3)cc2)CC1 — lower, -72.1%
- O=C(NCCc1ccccc1)c1ccc2nc(-c3ccco3)c(-c3ccco3)nc2c1 — lower, -22.3%
- Fc1ccc(CSc2nc3ccccc3[nH]2)c2ccccc12 — higher, 11.8%
- COc1cc(C(=O)OCCCN2CCOCC2)ccc1O — higher, 9.6%
- C/C(Cc1ccccc1)=N\NC(=O)c1cccnc1 — higher, 8.64%
- CC[C@H](C)[C@@H]1NC(=O)c2cc([N+](=O)[O-])cc(I)c2SC[C@@H](C(N)=O)NC(=O)[C@H](CCCCN)NC1=O — lower, -31.3%
- CC(C)(C)C(=O)COC(=O)c1cc2ccccc2cc1O — higher, 6.28%
- CC(=O)N1CCN(CC(=O)Nc2c(Cl)ccc(C)c2Cl)CC1 — higher, 9.04%
- O=C1NCCCC1C(=O)N1CCCCC1 (stereo not shown) — higher, 14.2%
- COc1cc(/C=N/n2cnnc2)ccc1OC(=O)N(C)C — higher, 10.5%
- O=S1(=O)CCOCCN1Cc1ccc(Cl)cc1Cl — lower, -13.5%
- CC(C(=O)NCC1(c2ccccc2)CCCC1)N1CCOCC1 (stereo not shown) — higher, -4.1%
- CC(=O)NC(C(=O)c1ccccc1)C(=O)c1ccccc1 — higher, 6.45%
- CCc1ccc(NC(=O)CCc2nnc3ccc(N4CCCC4)nn23)cc1 — higher, 4.01%
- O=S(=O)(Nc1ccccc1Cl)c1ccc2[nH]c(=S)oc2c1 — higher, 17.8%
- C/C(=N\NC(=O)C(C)Nc1cccc(Cl)c1)c1ccc([N+](=O)[O-])cc1 (stereo not shown) — lower, -50.5%
- COC(=O)c1cc(OC)c(OC)cc1NC(=O)C(C)c1ccc([N+](=O)[O-])cc1 (stereo not shown) — lower, -15.7%
- CCn1c(=NC(=O)CCS(=O)(=O)c2ccccc2)sc2cccc(OC)c21 — higher, 6.5%
- Cc1c(S(=O)(=O)NC(C)c2ccccc2)c(=O)n(C)c(=O)n1C (stereo not shown) — higher, 11.2%
- COc1ccc(/C=N/N2C(=O)CN(C(=O)c3ccccc3)C2c2ccc(OC)cc2)cc1 (stereo not shown) — higher, -4.19%
- CCn1c(SCC(=O)N/N=C/C(C)=C/c2ccco2)nnc1-c1ccccc1 — lower, -55.1%
- Cc1ccc(NC(=O)C2C3C=CC4(O3)C2C(=O)N(CCCN2CCCC(C)C2)C4C(=O)NC2CCCCC2)cc1 (stereo not shown) — higher, 9.43%
- CCN(CC)CCN(CC(=O)Nc1c(C)cc(C)cc1C)C(=O)c1ccccc1.O=C(O)/C=C/C(=O)O — lower, -22.5%
- COc1ccc(-c2[nH]ncc2CNC(C)CCn2cccn2)c(F)c1 (stereo not shown) — lower, -15.4%
- CCOC(=O)C1(Cc2ccccc2)CCN(Cc2cn(CC(=O)OC)c3ccccc23)CC1 — lower, -78.1%
- O=C(O)COc1ccc(NC(=O)c2ccc3c(c2)C(=O)N(C2CCCCC2)C3=O)cc1 — higher, 21.9%
- CCOc1cc(C(N)=O)cc(Cl)c1OCC — higher, 15.7%
- COc1cc(C(=O)NCCC(=O)NCCc2ccc(Cl)cc2)cc(OC)c1OC — higher, 4.56%
- CC(OC(=O)C1CCN(c2ccc(C(F)(F)F)cn2)CC1)C(=O)c1ccccc1 (stereo not shown) — higher, 4.99%
- FC(F)(F)c1ccccc1C1=CC(c2ccccc2)n2ncnc2N1 (stereo not shown) — lower, -19.7%
- O=C(NCCCN1CCOCC1)C(C(=O)c1ccccc1)n1ccccc1=O (stereo not shown) — higher, 20.2%
- CC(C)CNC(=O)CN1C(=O)NC(Cc2c[nH]c3ccccc23)C1=O (stereo not shown) — higher, 13%
- Cc1cc(C)c(S(=O)(=O)NCC(=O)NCc2ccco2)c(C)c1 — higher, -4.65%
- Cc1cc(Cl)nc(Cl)c1C(=O)N1CCOCC1 — lower, -47.4%
- COc1ccc(-c2ccc(-c3nnn(CC(C)=O)n3)cc2)cc1 — higher, 4.44%
- CCOC(=O)c1cnc2ccc(Cl)cc2c1N1CCN(C)CC1 — lower, -22.1%
- CC(C)c1nc2cc3ccccc3cc2[nH]1 — higher, -2.75%
- Cc1occc1-c1nnc(SCC(=O)N2CCN(c3ccccc3F)CC2)n1C — higher, 4.99%
- CCOc1ccccc1CN1CCN(CC2CC2)CC1CCO (stereo not shown) — higher, -2.67%
- Cc1cc(/C=N/NC(=O)c2cc3ccccc3o2)c(C)n1C — higher, 4.78%
- CC(C)OC(=O)CSc1nnc(-c2ccccn2)n1-c1ccccc1 — higher, -0.417%
- Cc1ccc(S(=O)(=O)Nc2ccc(-n3cnnn3)cc2)c(C)c1 — lower, -32%
- CC1(C)CCC(=O)C=C1Nc1ccc(F)c(Cl)c1 — higher, 7.56%
- COc1cc(NC(=O)C2CCCO2)c(OC)cc1Cl (stereo not shown) — higher, 3.32%
- O=C(CCc1ccc(O)cc1)N1C[C@H]2C[C@@H](C1)c1cccc(=O)n1C2 — higher, 8.85%
- O=C(Cc1cccs1)NC1CCCC1 — higher, 16.2%
- COCc1nnc(NS(=O)(=O)c2ccc([N+](=O)[O-])cc2)s1 — higher, 11.2%
- Cc1sc2nc(CN(Cc3cccs3)C(=O)NC3CCCCC3)[nH]c(=O)c2c1C — higher, -0.79%
- CC(C)NC(=S)NC(=O)c1ccc(Cl)cc1Cl — higher, 6.37%
- COc1ccc(C2SCC(=O)Nc3c2c(C)nn3-c2ccccc2)cc1OC (stereo not shown) — higher, 9.04%
- NS(=O)(=O)c1ccc(NC(=S)N2CCc3ccccc32)cc1 — higher, 19.6%
- CCOc1ccc(Oc2ccccc2NC(=O)C2=COCCO2)cc1 — lower, -22.2%
- NS(=O)(=O)c1ccc(CCNC(=O)CNC(=O)c2ccccc2F)cc1 — higher, 15.9%
- CCOC(=O)N(C)c1ccc(C(O)(C(=O)OC)C(F)(F)F)cc1 (stereo not shown) — higher, 3.91%
- Cc1ccc2cc(C)c(SCC(=O)NCC3CCCO3)nc2c1 (stereo not shown) — higher, 14.4%
- O=C(Nc1nsc(-c2ccccc2)n1)c1ccncc1 — higher, 3.75%
- S=C(Nc1ccc2cn[nH]c2c1)Nc1ccc(Cl)cc1Cl — higher, 1.4%
- CCNC(=S)N1CCN(c2nc(-c3ccc(F)cc3)cs2)CC1 — higher, 13.3%
